# Screen size: about 210,000 compounds; about 730 (0.35%) were called active. Inconclusive results, whose numbers are uncertain, are shown with a selection of clear calls. Calls follow the shape of the dose curve; as a rule, active = well fitted inhibition curve with a large enough effect; inconclusive = small, poorly fitted or top-dose-only effect; inactive = no such curve, though single readings can be large or run the other way. Potencies of inconclusive entries are doubtful fits and often do not repeat.
# Assay: qHTS Assay for Identifying the Cell-Membrane Permeable IMPase Inhibitors: Potentiation with Lithium; also: nearly all actives have a fitted effect of over 50% in size
# Settings: CHO-M1 cells, IP1 TR-FRET (IP-One), carbachol + lithium; series mostly up to 59.4 µM
# Outline: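 Steps: plate 2000 CHO-M1 cells per well and culture 16–30 h; add compound and lithium; incubate 30 min, 37C; add d2-IP1 tracer and Eu cryptate anti-IP1 antibody in lysis buffer; read after 10 min at room temperature.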
# Potency is read from the fitted curve at half-maximal effect.
row,Structure (SMILES),Potency
1,Cn1cc(Cl)c(-c2n[nH]c(=S)n2-c2ccc(F)cc2)n1,"inconclusive: 8.91 µM [inhibitor, partial curve]"
2,CC(Sc1nc2cc([N+](=O)[O-])ccc2n1-c1ccc(F)cc1)C(=O)NCc1ccc2c(c1)OCO2 (stereo unspecified),inactive
3,COc1cc2[nH]c(=S)n(Cc3ccc(F)cc3)c(=O)c2cc1OC,"inconclusive: 22.4 µM [inhibitor, single point]"
4,CC(=O)c1ccc(NC(=O)COC(=O)c2ccccc2Sc2ccccc2C#N)cc1,"inconclusive: 22.4 µM [inhibitor, single point]"
5,Cc1ccc(-c2nc(NC(=O)CSc3ccc4ccccc4n3)ns2)cc1,"inconclusive: 12.6 µM [inhibitor, single point]"
6,CCOC(=O)c1[nH]c2ccc(OCC)cc2c1NC(=O)CN1CCC2(CC1)OCCO2,"inconclusive: 7.08 µM [inhibitor, partial curve]"
7,CCOC(=O)/C(C#N)=C1/CCCCCN1C,inactive
8,O=C(OCn1ncc(Br)c(Br)c1=O)c1ccc(F)cc1,active: 7.08 µM
9,Cc1cc(SCCC(=O)O)nc2ccccc12,active: 11.2 µM
10,Cc1cccc(C)c1NC(=O)CSc1nc(COc2ccccc2)nc2ccccc12,"inconclusive: 22.4 µM [inhibitor, single point]"
11,CCC(c1nnnn1CCc1ccccc1)N(Cc1ccco1)Cc1cc2cc(C)cc(C)c2[nH]c1=O (stereo unspecified),inactive
12,COc1ccc(/C(O)=C2/C(=O)C(=O)N(CC3CCCO3)C2c2cccc(O)c2)cc1 (stereo unspecified),"inconclusive: 10 µM [inhibitor, single point]"
13,O=C(OCC1OC(OC(=O)c2cc(O)c(O)c(OC(=O)c3cc(O)c(O)c(O)c3)c2)[C@@H](OC(=O)c2cc(O)c(O)c(OC(=O)c3cc(O)c(O)c(O)c3)c2)C(OC(=O)c2cc(O)c(O)c(OC(=O)c3cc(O)c(O)c(O)c3)c2)C1OC(=O)c1cc(O)c(O)c(OC(=O)c2cc(O)c(O)c(O)c2)c1)c1cc(O)c(O)c(OC(=O)c2cc(O)c(O)c(O)c2)c1 (stereo partly specified),"inconclusive: 0.891 µM [inhibitor, partial curve]"
14,COc1ccc(Oc2nnc(-c3ccccc3)cc2C#N)cc1,"inconclusive: 20 µM [inhibitor, single point]"
15,COC(=O)C1CCN(C(=O)Cc2c(OC)ccc3cc(Br)ccc23)CC1,"inconclusive: 12.6 µM [inhibitor, partial curve]"
16,O=c1c2cc(O)c(O)cc2oc2cc(O)c(C3OC(CO)C(O)C(O)C3O)c(O)c12 (stereo unspecified),"inconclusive: 10 µM [inhibitor, single point]"

# Reference: PubChem BioAssay AID1457 (National Center for Advancing Translational Sciences (NCATS), 2008)
